# In the BET-seq Pho4 binding data (Le et al. 2018):
# This is one part of the list. Values were computed here from the reads of four pooled replicates and scatter widely.
# Target: T1, Pho4 (S. cerevisiae) (UniProt P07270)
# T1 sequence: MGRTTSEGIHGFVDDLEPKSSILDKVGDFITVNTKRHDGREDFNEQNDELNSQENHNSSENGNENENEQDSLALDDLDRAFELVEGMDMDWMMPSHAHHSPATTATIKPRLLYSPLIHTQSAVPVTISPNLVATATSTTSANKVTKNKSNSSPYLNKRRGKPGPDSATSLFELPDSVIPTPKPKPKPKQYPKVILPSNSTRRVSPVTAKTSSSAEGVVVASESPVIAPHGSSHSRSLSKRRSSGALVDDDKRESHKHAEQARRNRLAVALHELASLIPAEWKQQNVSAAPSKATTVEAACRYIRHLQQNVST
# Experiment: relative binding free energy (BET-seq); higher = weaker binding
# Conditions: reference: library average
row,Sequence,relative binding free energy
1,CTTTGCACGTGTATGT,-0.04 kcal/mol
2,GGCTTCACGTGTTTTC,0.42 kcal/mol
3,AGGATCACGTGTCTTG,0.3 kcal/mol
4,AGGTTCACGTGAATAG,0.28 kcal/mol
5,CGTATCACGTGGCGGG,0.02 kcal/mol
6,GCGTACACGTGGTAGT,0.02 kcal/mol
7,GGTTTCACGTGTATTG,0.33 kcal/mol
8,TCTTTCACGTGGGTAG,0.07 kcal/mol
9,GTTTACACGTGATTGA,0.24 kcal/mol
10,TGATTCACGTGAGGAG,0.45 kcal/mol
11,GGGGACACGTGCGTAT,0.05 kcal/mol
12,TATTTCACGTGTGAAG,0.34 kcal/mol
13,TAAGTCACGTGGGTTA,-0.02 kcal/mol
14,TAGTTCACGTGACGTT,0.31 kcal/mol
15,TATCTCACGTGTGGTT,0.09 kcal/mol
16,TGGTGCACGTGTCAGT,-0.1 kcal/mol
17,GTGGTCACGTGACTGA,0.26 kcal/mol
18,ATTCGCACGTGTGGGG,-0.13 kcal/mol
19,ATGTTCACGTGCGGTT,0.23 kcal/mol
20,TTGTGCACGTGCGGTG,-0.13 kcal/mol
21,AGATGCACGTGGGTAG,-0.17 kcal/mol
22,TTATTCACGTGGGTGA,0.27 kcal/mol
23,TATTTCACGTGGCCGT,0.36 kcal/mol
24,ATAGTCACGTGGGGAA,-0.03 kcal/mol
25,GCATTCACGTGGATTG,0.19 kcal/mol

row,Sequence,relative binding free energy
1,ATTCACACGTGATATT,0.32 kcal/mol
2,TTGGACACGTGTGCTG,0.01 kcal/mol
3,TGTGACACGTGTGATT,0.18 kcal/mol
4,TAGATCACGTGAGGAA,0.38 kcal/mol
5,GGGACCACGTGTGGTT,0.11 kcal/mol
6,TATCTCACGTGCGTTA,0.34 kcal/mol
7,TTAGACACGTGTGGAA,0.17 kcal/mol
8,AGTAGCACGTGGTGGA,-0.11 kcal/mol
9,TGACTCACGTGTTGGC,0.31 kcal/mol
10,CGGTTCACGTGTGTGC,0.18 kcal/mol
11,CATCACACGTGGGGGT,-0.07 kcal/mol
12,TTAGCCACGTGATATG,0.15 kcal/mol
13,ATCCTCACGTGGGGGG,0.04 kcal/mol
14,AAGATCACGTGTTGGG,0.29 kcal/mol
15,TTCAGCACGTGTTGGA,-0.12 kcal/mol
16,TAGAGCACGTGGCCGG,-0.15 kcal/mol
17,GTAGTCACGTGTGAGC,0.27 kcal/mol
18,AATGACACGTGTAATT,0.25 kcal/mol
19,ATATTCACGTGCATAG,0.23 kcal/mol
20,TTTGTCACGTGAGCTT,0.24 kcal/mol
21,TATTGCACGTGGTCTC,-0.04 kcal/mol
22,TGGCTCACGTGTGTGG,0.39 kcal/mol
23,GTATGCACGTGGCGAT,-0.15 kcal/mol
24,TTAAACACGTGGGCGG,-0.07 kcal/mol
25,TATGTCACGTGTGTTG,0.13 kcal/mol

row,Sequence,relative binding free energy
1,GCTATCACGTGATGGT,0.17 kcal/mol
2,AGTAACACGTGGGGAT,-0.22 kcal/mol
3,AAAAGCACGTGGCGTG,-0.11 kcal/mol
4,ATGCTCACGTGTGCGT,0.27 kcal/mol
5,TACGGCACGTGTGGGC,-0.06 kcal/mol
6,AGTTACACGTGGTTCT,-0.01 kcal/mol
7,AGGGCCACGTGGTGTG,-0.25 kcal/mol
8,GGTTACACGTGGATGT,0.18 kcal/mol
9,TGAGTCACGTGGTGAG,0.03 kcal/mol
10,GTCATCACGTGGTGGG,0.01 kcal/mol
11,CGAAGCACGTGGGGGA,-0.29 kcal/mol
12,AGATGCACGTGGTCTT,-0.07 kcal/mol
13,AGCTGCACGTGGATTG,-0.11 kcal/mol
14,GGTCTCACGTGTATGT,0.04 kcal/mol
15,ACAGGCACGTGAGGAG,0.14 kcal/mol
16,TGCGGCACGTGACGGG,0 kcal/mol
17,TTTTTCACGTGCGCAA,0.45 kcal/mol
18,TAATCCACGTGGTAGG,-0.05 kcal/mol
19,TTGAACACGTGTTGGG,0.03 kcal/mol
20,CGGGGCACGTGGAAAA,0.18 kcal/mol
21,GTTATCACGTGTTACG,0.06 kcal/mol
22,ATTATCACGTGATATT,0.18 kcal/mol
23,GTGAGCACGTGTTTGT,-0.06 kcal/mol
24,GGGTGCACGTGAAGGC,0.34 kcal/mol
25,TAAAGCACGTGTGCGT,-0.13 kcal/mol

row,Sequence,relative binding free energy
1,GGAATCACGTGCGTTT,0.17 kcal/mol
2,GGACACACGTGTGGTG,0.06 kcal/mol
3,AATTACACGTGGAGTA,0 kcal/mol
4,GTAAGCACGTGGGTCT,-0.1 kcal/mol
5,TTATTCACGTGATCTA,0.26 kcal/mol
6,AGGAGCACGTGCGGAG,-0.13 kcal/mol
7,TGCGACACGTGTGTTA,0 kcal/mol
8,CGGATCACGTGTTGGG,0.16 kcal/mol
9,GGGATCACGTGAGGCG,0.23 kcal/mol
10,TGAGGCACGTGTGTCG,-0.19 kcal/mol
11,TCGGGCACGTGGATGT,-0.14 kcal/mol
12,GGCAGCACGTGATGTG,0.07 kcal/mol
13,TGTTCCACGTGGTAGG,0 kcal/mol
14,TTTGACACGTGAGCAG,0.2 kcal/mol
15,TTCTCCACGTGGTGTT,-0.04 kcal/mol
16,TTATACACGTGGGGAG,-0.01 kcal/mol
17,CGTTACACGTGTATTG,0.19 kcal/mol
18,AGATCCACGTGGAGTG,0.06 kcal/mol
19,TGGTACACGTGTCTGG,0.08 kcal/mol
20,ATAAACACGTGGTATG,-0.14 kcal/mol
21,GTTGCCACGTGTTGTT,0 kcal/mol
22,AAGTGCACGTGCAGCG,0.01 kcal/mol
23,TGATACACGTGAATTT,0.44 kcal/mol
24,AATGTCACGTGATGGG,0.26 kcal/mol
25,ATCGTCACGTGAATTT,0.5 kcal/mol

row,Sequence,relative binding free energy
1,ATATTCACGTGTCTGG,0.13 kcal/mol
2,TTTTGCACGTGATCGG,0.07 kcal/mol
3,TTTAGCACGTGTTAAG,-0.06 kcal/mol
4,TGTAGCACGTGGCGAT,-0.13 kcal/mol
5,GATAACACGTGCGTGT,-0.04 kcal/mol
6,AGGGTCACGTGAAGAG,0.13 kcal/mol
7,ATGTACACGTGGAGGA,0.06 kcal/mol
8,GTGATCACGTGTAGTG,0.17 kcal/mol
9,TTGACCACGTGGGGGC,-0.17 kcal/mol
10,TGTATCACGTGTTCTT,0.08 kcal/mol
11,GGAGACACGTGTGTGA,0.17 kcal/mol
12,AGAAACACGTGGTTGA,0.03 kcal/mol
13,TTTGGCACGTGGTTGA,-0.09 kcal/mol
14,TACTTCACGTGGTCGT,0.24 kcal/mol
15,TGTGGCACGTGAGGGT,0.14 kcal/mol
16,CGTGTCACGTGATTAA,0.2 kcal/mol
17,ATTGCCACGTGTAGGG,-0.02 kcal/mol
18,AGTTGCACGTGACGCG,0.22 kcal/mol
19,TTAGCCACGTGGGGAT,-0.23 kcal/mol
20,AGTATCACGTGTTGCT,0.16 kcal/mol
21,GGTATCACGTGGATTT,0.22 kcal/mol
22,TAGTTCACGTGAGTAC,0.53 kcal/mol
23,TATGGCACGTGGCTAG,-0.17 kcal/mol
24,TGTATCACGTGTTTTC,0.26 kcal/mol
25,ATAGTCACGTGTCAGG,0.08 kcal/mol

row,Sequence,relative binding free energy
1,GTAAACACGTGAGGTA,0.34 kcal/mol
2,CGTAGCACGTGGAGTG,-0.09 kcal/mol
3,TGTGTCACGTGAGTGG,0.31 kcal/mol
4,AGTGGCACGTGTTGAT,-0.16 kcal/mol
5,TAGATCACGTGGTATG,0 kcal/mol
6,ATCTTCACGTGTGCTG,0.24 kcal/mol
7,TGGTTCACGTGCCTTG,0.09 kcal/mol
8,CGTGACACGTGGCTGG,-0.07 kcal/mol
9,GTCGTCACGTGGTGCT,0.09 kcal/mol
10,TTGTTCACGTGATCAT,0.17 kcal/mol
11,TTGTTCACGTGAGAGC,0.41 kcal/mol
12,AGTAACACGTGGCTGG,-0.13 kcal/mol
13,GGGCTCACGTGTAATG,0.35 kcal/mol
14,ATCTTCACGTGGGGAT,0.17 kcal/mol
15,TTTGTCACGTGTCATA,-0.05 kcal/mol
16,ATTGCCACGTGTATAT,-0.03 kcal/mol
17,TGGCTCACGTGTTCGG,0.19 kcal/mol
18,TTGGTCACGTGCGTGG,0.13 kcal/mol
19,ATATGCACGTGACTTT,0.01 kcal/mol
20,GAGGTCACGTGTCTAG,0.24 kcal/mol
21,GTGGACACGTGTGAGT,0.08 kcal/mol
